# Where “and” joins values, the source holds several entries; their conditions need not be identical. Equal entries are not always repeated. Hit rate of the full screen: of about 48,000 compounds, about 1,200 (2.5%) were called active. Inconclusive results (about 2%) are left out.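 How the source made its calls: active means activation of at least 60% and not above a set upper limit (about 1 call in 100 departs from these limits); inconclusive means activation of 40% to 60%, or above that upper limit; inactive means activation under 40%.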 The list shows a part of the results.
# Target: Probable G-protein coupled receptor 32 (Homo sapiens) (UniProt O75388)
# Sequence of UniProt O75388 (O75388 whole entry, looked up): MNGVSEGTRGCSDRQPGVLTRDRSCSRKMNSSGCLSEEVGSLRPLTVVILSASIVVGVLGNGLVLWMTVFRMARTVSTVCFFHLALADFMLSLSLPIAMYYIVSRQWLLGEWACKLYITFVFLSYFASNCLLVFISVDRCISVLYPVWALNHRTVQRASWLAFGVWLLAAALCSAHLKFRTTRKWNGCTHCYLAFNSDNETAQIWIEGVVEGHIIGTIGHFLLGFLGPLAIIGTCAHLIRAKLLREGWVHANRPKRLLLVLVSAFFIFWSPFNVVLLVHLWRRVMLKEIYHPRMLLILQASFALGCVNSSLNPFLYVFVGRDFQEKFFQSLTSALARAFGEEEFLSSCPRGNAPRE
# Assay: qHTS for Agonists of Human Resolvin D1 Receptor DRV1; further: 0% is about no effect
# Conditions: CHO-K1 GPR32 beta-arrestin PathHunter luminescence, 90 min; at 76.9 µM; stronger effect = higher value; zero percent set by DMSO-only wells
# Method in brief: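 Agonism was scored as beta-arrestin recruitment to ProLink-fused GPR32 in stably transfected CHO-K1 cells, giving a chemiluminescent beta-Gal signal; compounds were incubated 90 min at 37 °C.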
row,SMILES,activation
1,COc1ccc(-c2cc(C(F)(F)F)nc(SCC(=O)Nc3ccc(C(C)=O)cc3)n2)cc1,inactive: -13.5%
2,COc1nnc(-c2ccc(N3CCCCC3)c(NC(=O)c3ccc(Cl)cc3)c2)c2ccccc12,inactive: 6.4%
3,O=C(NCCc1csc(-c2ccc(F)cc2)n1)C(=O)Nc1ccc(Cl)cc1,inactive: -3.29%
4,O=C1NC(=O)C(c2ccccc2)(c2ccccc2)N1,inactive: -5.76% and inactive: -11.9% and inactive: 6.67%
5,COc1ccc(OC)c(NC(=O)c2nc(SCc3ccc(F)cc3)ncc2Cl)c1,inactive: -2.43%
6,CCC(=O)N1c2ccc(S(=O)(=O)NCCc3ccccc3)cc2CC1C (configuration not stated),inactive: 42.6%
7,O=C(/C=C/c1cn(CC(O)CN2CCc3ccccc32)c2ccccc12)c1ccc(Br)cc1 (configuration not stated),inactive: 1.57%
8,COC(=O)c1ccccc1NC(=O)N(Cc1ccc(C)cc1)Cc1cccn1-c1nnc(N2CCCC2=O)s1,inactive: -5.55%
9,COc1ccc(C)cc1NC(=O)C1CCN(S(=O)(=O)c2cccc3nonc23)CC1,inactive: -1.24%
10,Cc1ccc(CNS(=O)(=O)c2c(C(=O)N3CCC(C)CC3)c(C)n(C)c2C)cc1,inactive: -21.1%
11,CCOC(=O)c1[nH]c(C)c(CCC(=O)NCc2ccc(OC(C)C)cc2)c1C,inactive: -20.8%
12,Cc1sc2ncn(CC(=O)Nc3ccc(C(F)(F)F)cc3)c(=O)c2c1S(=O)(=O)N1CCN(C)CC1,inactive: -5.03%
13,Cc1cc(Nc2cccc(O)c2)c2cccc(Br)c2n1,active: 119%
14,CCc1ccc(S(=O)(=O)c2cn(CC(=O)Nc3cccc(C)c3)c3ccc(Cl)cc3c2=O)cc1,inactive: 45.1%
15,Cc1cccc(NC(=O)CSc2nnc3c4ccccc4n(C)c3n2)c1,inactive: 24.2%
16,O=C(CCn1cnnn1)Nc1ccccc1,inactive: 0.616%
17,O=C(CSc1nc2c([nH]c3ccccc32)c(=O)n1-c1ccccc1)Nc1ccccc1F,inactive: -54%
18,Cc1ccc(-c2c(C)n3c4c(=O)n(C)c(=O)n(C)c4nc3n2CCCO)cc1,active: 60.3%
19,CCOc1ccc(NC(=O)C2CCCN(S(=O)(=O)c3ccc(Br)s3)C2)cc1 (configuration not stated),inactive: -2.89%
20,CCOC(=O)c1ccccc1NC(=O)Cn1c(=O)n(Cc2ccc(C(=O)NCc3ccc4c(c3)OCO4)cc2)c(=O)c2ccccc21,inactive: 19.9%
21,COc1ccc(C(=O)Nc2cccc(-c3nc4cccnc4s3)c2C)c(OC)c1,inactive: 0.363%

row,SMILES,activation
1,CC(=O)N1c2c(cc(Br)cc2S(=O)(=O)Nc2ccccc2C)CC1C (configuration not stated),inactive: 0.628%
2,Cc1cccc(C(=O)NC(=O)Nc2ccc(-n3nc(C(F)(F)F)cc3C(F)(F)F)cc2)c1,inactive: 0.225%
3,CC(=O)N1CCCc2cc(S(=O)(=O)N3CCC(N(C)C(C)C)CC3)ccc21,inactive: -3.8%
4,Cc1c2cnn(CC(=O)NCc3ccc(F)cc3)c(=O)c2c(C)n1Cc1ccccc1Cl,inactive: -5.37%
5,COc1cccc(Cn2cnc3c2c(=O)n(C)c(=O)n3C)c1,inactive: 22.3%
6,CCOc1cc(Br)c(C2C(C(=O)OC)=C(C)NC3=C2C(=O)c2ccccc23)cc1OCC (configuration not stated),inactive: -42.5%
7,COCCCNC(=O)C1CCN(c2ncnc3c2nc2n3CCCCC2)CC1,inactive: -11.7%
8,O=C(Nc1cccc(C(F)(F)F)c1)c1ccc(F)c(S(=O)(=O)N2CCc3ccccc3C2)c1,inactive: -9.56%
9,COc1ccc2c(c1)c1c(c(=O)n(-c3ccc(C)cc3)c(=O)n1CC(=O)Nc1cc(C)ccc1C)n2C,inactive: -8.36%
10,Cc1nc2c(C(=O)NCCC(C)C)cnn2c(C)c1Cc1c(F)cccc1Cl,inactive: -11%
11,CCC(C)NC(=O)C1CCN(S(=O)(=O)c2ccc3c(ccn3CC)c2)CC1 (configuration not stated),inactive: 2.64%
12,O=C(O)c1ccccc1NC(=O)N1c2ccccc2Sc2ccccc21,inactive: 19.9%
13,COc1ccccc1CNC(=O)c1cc2cc(S(=O)(=O)N3CCCCC3)ccc2n1C,inactive: 0.513%
14,CCOC(=O)C1CCCN(C(=O)C2CCN(S(=O)(=O)c3c(C)noc3/C=C/c3ccc(C)cc3)CC2)C1 (configuration not stated),inactive: 10.1%
15,COc1cccc2sc(N(Cc3cccnc3)C(=O)c3ccc(S(=O)(=O)N(C)C)cc3)nc12,inactive: -22.3%
16,COc1cc2c(cc1OC)C(c1cc(OC)c(O)c(OC)c1)CC(=O)N2 (configuration not stated),inactive: 9.96%
17,CC1CCCN(Cc2c(O)ccc3c(=O)c(-c4ccc(Cl)cc4)c(C(F)(F)F)oc23)C1 (configuration not stated),inactive: -18.3%
18,Cc1ccc(OCc2cc(=O)n3cc(C)sc3n2)c(C)c1,inactive: -16.6%
19,COc1ccc(S(=O)(=O)c2cn(C)c3cc(N4CCOCC4)c(F)cc3c2=O)cc1,inactive: -6.34%
20,COC(=O)CC1Oc2ccc(Cl)cc2-n2cc(-c3ccc(F)cc3)nc21 (configuration not stated),inactive: 18%
21,O=C(COc1ccccc1)Nc1c(Cl)ccc2nsnc12,inactive: 43.7%

row,SMILES,activation
1,CCc1ccc(OCC(=O)Nc2ccc(Cl)c(-c3nc4ncccc4o3)c2)cc1,active: 118%
2,CCc1ccc(OCC(=O)Nc2ccc3oc(-c4ccc(OC)cc4)nc3c2)cc1,inactive: 10.5%
3,CC(=O)N1CCc2cc(S(=O)(=O)N3CCN(c4ccc(C)cc4)C(C)C3)ccc21 (configuration not stated),inactive: 6.58%
4,CCOc1ccc(S(=O)(=O)NCC(c2cccs2)S(=O)(=O)c2ccc(C)cc2)cc1 (configuration not stated),inactive: -21.6%
5,CCN1CCN(C(=O)c2c(C)nn(-c3ccc(F)cc3)c2-n2cccc2)CC1,inactive: 6.86%
6,CC(C)(C)NC(=O)CCSc1nc(-c2ccc3c(c2)OCO3)cc(C(F)(F)F)n1,inactive: -1.2%
7,Cc1cc(-c2nc3ncccc3o2)ccc1NC(=O)COc1cc(C)c(Cl)c(C)c1,inactive: 7.74%
8,CCC(C(=O)NCCc1cc(OC)ccc1OC)n1nc(C)c2sc3ccccc3c2c1=O (configuration not stated),inactive: -20.8%
9,Cc1c(C(=O)OCCOc2ccccc2)[nH]c2c1C(=O)CC(c1ccccc1Cl)C2 (configuration not stated),inactive: -17.1%
10,CCOC(=O)c1cccc(NC(=O)c2nn(-c3ccc(OC)cc3)c(=O)c3c2c2ccccc2n3C)c1,inactive: -13.2%
11,CN(Cc1ccccc1)c1ccc(-c2nc(-c3cccnc3)no2)cc1[N+](=O)[O-],inactive: 0%
12,CCN(Cc1ccccc1)S(=O)(=O)c1ccc2[nH]c3c(c2c1)CCCCC3,inactive: 32.9%
13,Cc1ccc(C)c(NC(=O)CSc2nc(-c3ccccc3Cl)nc3c2Cc2c(CO)cnc(C)c2O3)c1,inactive: -27.4%
14,CCOC(=O)c1cnc2nc(NCc3ccc(OCC)cc3)[nH]n2c1=O,inactive: -5.09%
15,CCCCOc1ccc(C(=O)NCCc2csc(-c3ccc(OC)cc3)n2)cc1,inactive: -2.32%
16,CN(C)c1ccc(CNC(=O)c2cccn2-c2nnc(N3CCCCC3)s2)cc1,inactive: -15.9%
17,O=C(NCc1ccc(F)cc1)C(=O)NCC(c1cccs1)S(=O)(=O)c1cccs1 (configuration not stated),inactive: -9.75%
18,COc1cccc(C(=O)NCCN2CCN(c3ccc(Cl)cc3)CC2)c1,inactive: -0.119%
19,Cc1ccc(C)c(NC(=O)Nc2csc3c2CCCC3)c1,inactive: -9.42%
20,COc1ccccc1NC(=O)Cn1c(=O)n(Cc2nc(-c3ccccc3)no2)c(=O)c2ccccc21,inactive: 9.72%
21,CCOc1ccc2nc(N3CCCC(C(=O)NCc4ccc(C)cc4)C3)sc2c1 (configuration not stated),inactive: -5.4%

row,SMILES,activation
1,CC(C)NC(=O)C1CCN(C(=O)N2CC(C)Oc3ccccc32)CC1 (configuration not stated),inactive: -7.66%
2,CCC1=C(c2ccc(C)cc2)S(=O)(=O)N=C1N1CCC(C(=O)N2CCCCC2)CC1,inactive: 5.37%
3,COc1ccc(NC(=O)Cn2cc(C(=O)c3cccs3)c3ccccc32)cc1,inactive: -12%
4,O=C(COCc1cc(-c2cccs2)on1)Nc1cccc(O)c1,inactive: -4.61%
5,CCS(=O)(=O)NCCc1csc2nc(-c3ccc(C)cc3)nn12,inactive: 1.26%
6,Cc1ccc(-n2cnc3cc(C(=O)NC4CCCCCC4)ccc32)cc1Cl,inactive: -9.64%
7,Cc1cccc(-n2c(-c3ccco3)nc3c(cnn3-c3ccc(F)cc3)c2=O)c1,inactive: 21.5%
8,COC(=O)c1c(C)sc(-c2c(-c3ccc4c(c3)OCCO4)[nH]c3c2c(=O)[nH]c(=O)n3C)c1O,inactive: -37.6%
9,COc1ccc(-c2nn(C)c3sc(C(=O)N4CCN(c5cccc(Cl)c5)CC4)cc23)cc1OC,inactive: -16.1%
10,CC1CCc2c(sc(NC(=O)c3cc(-c4ccc(Br)cc4)on3)c2C(N)=O)C1 (configuration not stated),inactive: 12.4%
11,COc1ccc(NC(=O)C2CCN(S(=O)(=O)c3c(C)noc3/C=C/c3ccc(C)cc3)CC2)cc1Cl,inactive: 15.6%
12,COc1ccc(NC(=O)CN(C)S(=O)(=O)c2ccc3nc(C)sc3c2)cc1,inactive: -10.5%
13,COc1ccc(N2C(=O)CS(=O)(=O)C23C(=O)N(Cc2c(F)cccc2Cl)c2ccccc23)cc1 (configuration not stated),inactive: 10.7%
14,CC(C)CCNC(=O)c1cc(Sc2ccc(F)cc2F)nc2ccccc12,inactive: -12.9%
15,COc1ccc(NC(=O)C2=C(C)Nc3ncnn3C2c2ccccn2)cc1 (configuration not stated),inactive: 2.35%
16,CCCCn1cc(S(=O)(=O)c2ccccc2)c(=O)c2cc(F)c(N3CCC(C)CC3)cc21,inactive: -9.15%
17,CCOC(=O)c1cnc2c(C)cc(C)cc2c1Nc1ccc(OCc2ccccc2)cc1,inactive: 7.45%
18,CCOC(=O)C1=C(C(F)(F)F)Nc2ncnn2C1c1cccc(OC)c1OC (configuration not stated),inactive: -2.56%
19,O=C(CN1CCN(CC(=O)Nc2ccccc2F)CC1)Nc1ccc(Cl)c(C(F)(F)F)c1,inactive: 31%

# — PubChem BioAssay AID1346428 (National Center for Advancing Translational Sciences (NCATS), 2018)
